# PubChem BioAssay AID686979 (National Center for Advancing Translational Sciences (NCATS), 2013)
# The whole screen tested about 420,000 compounds, of which about 50,000 (12%) were called active. Inconclusive means that the source gave no clear call. Such entries were picked first, then a sample of the others. Calls come from the whole dose curve; as a rule, active = well fitted inhibition curve with a large enough effect; inconclusive = small, poorly fitted or top-dose-only effect; inactive = flat fitted curve, though single readings scatter. No potency is given beside an inconclusive call; the fits are too rough.
# Assay: qHTS for Inhibitors of human tyrosyl-DNA phosphodiesterase 1 (TDP1): qHTS in cells in presence of CPT; note: nearly all actives have a fitted effect of over 55% in size
# Details: chicken DT40 Tdp1-/-;hTDP1 cells + 20 nM CPT, ATP luminescence, 48 h; activity change, negative = growth inhibition: at 46.2 µM (top of the series)
# Procedure, shortened: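 Cell growth measured by CellTiter-Glo luminescence after a minimum 48 h, 37 C compound exposure with 20 nM CPT in Tdp1-knockout DT40 cells stably expressing hTDP1, seeded 400/well; qHTS titration format.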
# % is set by controls: 0 for no effect and ±100 for the full control effect; potency is the fitted concentration of half-maximal effect; tags give direction and shape of the fitted curve.
Structure (SMILES),Potency,"activity change, negative = growth inhibition"
O=C(/C=C/c1cc([N+](=O)[O-])ccc1OC(F)F)NCc1ccc(Cl)cc1,"inconclusive [inhibitor, single point]",–
O=C(CCCl)N(Cc1nc2ccccc2c(=O)[nH]1)Cc1cccs1,inactive,–
Cc1ccccc1Cn1c2ccccc2c2cnn(CC(=O)NCCc3ccc(Cl)cc3)c(=O)c21,"inconclusive [inhibitor, single point]",–
O=c1c2cc(Cl)ccc2[nH]c(=S)n1Cc1ccccn1,active: 18.4 µM,–
O=C(Nc1ccn(Cc2ccccc2F)n1)c1ccc(COc2cccc(Br)c2)cc1,"inconclusive [inhibitor, single point]",–
CCOc1cc(C(=O)NCC(=O)N/N=C/c2sccc2C)cc(OCC)c1OCC,inactive,–
Cc1cccc(OCCn2c(-c3ccc(Cl)cc3)nc3ccccc3c2=O)c1C,inactive,–
O=C(OCc1ccccc1)C1=[N+]([O-])OC(C(=O)OCc2ccccc2)C1c1c[nH]c2ccccc12 (configuration not stated),"inconclusive [inhibitor, single point]",–
COc1cc(-c2nnc(COc3ccc4ccccc4c3)o2)cc(OC)c1OC,"inconclusive [inhibitor, single point]",–
CCOC(=O)C1=C(c2ccccc2)NC(SCC(N)=O)=C(C#N)C1c1cccnc1 (configuration not stated),"inconclusive [inhibitor, single point]",–
CC(=O)c1cccc(Nc2nc(-c3ccccc3Cl)nc3ccccc23)c1,active: 14.6 µM,–
Cc1ccc2[nH]c3c(=O)n(CC(=O)N4CCCC(C)C4)ncc3c2c1 (configuration not stated),"inconclusive [inhibitor, single point]",–
CC(C)c1cccc(C(C)C)c1NS(=O)(=O)c1cccs1,"inconclusive [inhibitor, single point]",–
CC(CCCc1ccccc1)NC(=O)c1nn(-c2ccc(Cl)cc2)nc1CO (configuration not stated),"inconclusive [inhibitor, single point]",–
Nc1ncc(S(=O)(=O)NCc2ccc(F)cc2)cn1,inactive,–
C=Cn1cc[n+](CC(=O)c2ccc(OC)c(OC)c2)c1,inactive,–
CC1(C)N=C(N)N=C(N)N1c1ccc(CCCCc2ccccc2)cc1,active: 0.651 µM,–
CC(C)(c1ccccc1)c1ccc(OCCN2CCOCC2)cc1,"inconclusive [inhibitor, partial curve, poor fit]",–
O=C(NC1CC(=O)N(c2ccccc2)C1)c1ccc(S(=O)(=O)N2CCCC2)cc1 (configuration not stated),"inconclusive [inhibitor, partial curve, poor fit]",–
CC(C)C(=O)C1=Cc2cc([N+](=O)[O-])ccc2OC1N1CCOCC1 (configuration not stated),"inconclusive [inhibitor, single point]",–
COc1ccc2c(c1)O[C@H]1c3ccc(O)cc3OC[C@@H]21,inactive,–
O=C(c1ccncc1)N1CCC2(CC1)CN(c1ccccn1)C2,"inconclusive [inhibitor, partial curve]",–
CCC(=O)N(Cc1ccco1)c1nc(C(=O)Nc2ccc(Cl)cc2)c(C)s1,"inconclusive [inhibitor, single point]",–
Cc1nn2cnnc2c(C)c1Cc1c(F)cccc1Cl,inactive,–

Structure (SMILES),Potency,"activity change, negative = growth inhibition"
Cn1ncc(C#N)c1/N=C/N(Cc1ccccc1)Cc1ccccc1,active: 14.6 µM,–
CCC(C)c1ccc(S(=O)(=O)N2CCN(C(=O)c3ccc(Cl)c(S(=O)(=O)N4CCOCC4)c3)CC2)cc1 (configuration not stated),"inconclusive [inhibitor, single point]",–
CC1(C)N=C(c2ccccc2)C(c2ccccc2)=N1,"inconclusive [inhibitor, partial curve, poor fit]",–
Cc1ccc(S(=O)(=O)N2CCC(C(=O)N3CCCC3C(=O)N[C@@H](CC(C)C)C(=O)NCC(N)=O)CC2)cc1 (some centres not stated),inactive,–
Cc1nn(Cc2ccc(F)cc2)c2sc(C(=O)Nc3ccccc3N3CCOCC3)cc12,"inconclusive [inhibitor, single point]",–
Cc1[nH]c2ccccc2c1C(=O)C(=O)NCCCn1ccnc1,inactive,–
CCOC(=O)c1c(C)[nH]c(C)c1S(=O)(=O)NCC(=O)N1CCN(c2ccccc2F)CC1,"inconclusive [inhibitor, single point]",–
Cc1cc(C)c2ccc(C(=O)O)nc2c1O,"inconclusive [inhibitor, single point]",–
CC(=O)Nc1sc2c(c1C(N)=O)CCN(Cc1ccccc1)C2,inactive,–
Cc1ccc(-n2[nH]c(C)c(C=Nc3ccc(C)cn3)c2=O)cc1,active: 9.2 µM,–
COc1ccc(C(=O)N2CCN(c3ccccc3Cl)CC2)cc1S(=O)(=O)NC1CC1,"inconclusive [inhibitor, partial curve]",–
Cc1ccc(NC(=O)C(C)Sc2nnc(C)n2CC2CCCO2)cc1 (configuration not stated),inactive,–
COc1ccc(C(C)=O)cc1COC(=O)C1CC(=O)N(Cc2ccccc2)C1 (configuration not stated),inactive,–
Cc1ccccc1OCc1csc(N)n1,inactive,–
Cc1ccc(C(N)=O)cc1S(=O)(=O)Nc1cccc(C)c1C,"inconclusive [inhibitor, partial curve]",–
Cc1ccc(C)c(N2CCN(C(=O)c3ccccc3Br)CC2)c1,active: 20.6 µM,–
O=C(Nc1ccccc1-c1ccccc1)NC1CC2CCCC(C1)N2Cc1ccc(F)cc1 (configuration not stated),active: 20.6 µM,–
COc1ccc(/C=C/C(=O)OCC(=O)Nc2ccc(Cl)c(S(=O)(=O)N(C)C)c2)cc1OC,inactive,–
COCCNC(=O)C(c1ccc(C)o1)N(C(=O)c1snc(C(N)=O)c1N)c1cccc(C)c1 (configuration not stated),–,inconclusive: -30.4% [inhibitor]
N#CC(CCc1ccccc1[N+](=O)[O-])(CCc1ccccc1[N+](=O)[O-])C(N)=O,"inconclusive [inhibitor, single point]",–
Cc1ccc(C)c(OC(=O)c2cccnc2)c1,inactive,–
CNc1ccc(-c2cccc(C(C)=O)c2)cn1,"inconclusive [inhibitor, single point]",–
CSc1ccc(/C=C/C(=O)Nc2ccccc2)cc1,"inconclusive [inhibitor, single point]",–
Cc1noc2ncnc(N3CCCC(C(=O)Nc4cccc(C(F)(F)F)c4)C3)c12 (configuration not stated),active: 14.6 µM,–

Structure (SMILES),Potency,"activity change, negative = growth inhibition"
CCc1ccc(NC(=O)c2ccc(F)c(S(=O)(=O)N3CCN(c4cc(C)ccc4C)CC3)c2)cc1,"inconclusive [inhibitor, single point]",–
c1ccc(Oc2cccc(OCCCCN3CCCC3)c2)cc1,"inconclusive [inhibitor, single point]",–
O=C(CNc1cccc2ccccc12)N/N=C/c1ccccn1,"inconclusive [inhibitor, single point]",–
O=C(COC(=O)c1ncc(Cl)c(Cl)c1Cl)NC(=O)NCc1ccccc1,"inconclusive [inhibitor, full curve]",–
CC(=O)N1CCN(Cc2cc(=O)oc3cc(C)ccc23)CC1,inactive,–
O=C(CSc1nnc(-c2ccccc2)c(-c2ccccc2)n1)NCc1ccco1,"inconclusive [inhibitor, single point]",–
CCOc1cc(N2CCOCC2)c(OCC)cc1NC(=O)CN1CCCC(C)C1 (configuration not stated),"inconclusive [inhibitor, partial curve]",–
CCOC(=O)c1c(CN(CC)CC)n(C)c2cc(Br)c(O)cc12,inactive,–
CCc1c(C)c(C#N)c2nc3ccccc3n2c1Nc1cccc(C(F)(F)F)c1,active: 16.4 µM,–
COc1ccc(-c2nc(S(=O)(=O)c3ccc(C)cc3)c(NCc3ccccc3)o2)cc1,"inconclusive [inhibitor, single point]",–
Cn1cc(-c2cc3n(n2)CCC(=O)N3CCCC(=O)Nc2ccccc2F)c2ccccc21,"inconclusive [inhibitor, single point]",–
CCOc1ccccc1N1CCN(C(=O)c2ccc3[nH]c4c(c3c2)CCCC4)CC1,active: 20.6 µM,–
CC(=O)OCCn1c([N+](=O)[O-])cnc1C=[N+]([O-])C1CCCCC1,inactive,–
CCCN(CC1CC1)c1nc(N)c(C#N)c(CC#N)c1C#N,"inconclusive [inhibitor, single point]",–
CC(C)(C)C(=O)C[n+]1cccc(C(N)=O)c1,inactive,–
O=C(CCNC(=O)c1ccccc1Cl)Nc1ccc(Cl)c(C(F)(F)F)c1,"inconclusive [inhibitor, single point]",–
Cc1c(C(=O)NCc2ccccc2Br)oc2ccc3c(c12)C(=O)CC(C)(C)O3,"inconclusive [inhibitor, single point]",–
O=C(COC(=O)CN1C(=O)C(=O)c2ccccc21)OCN1C(=O)c2ccccc2C1=O,"inconclusive [inhibitor, single point]",–
Cc1ccccc1Nc1nnc(SCC2CCCCO2)s1 (configuration not stated),"inconclusive [inhibitor, single point]",–
Clc1ccc(-n2nnnc2-c2cnc(-c3ccncc3)nc2-c2cccs2)cc1,"inconclusive [inhibitor, single point]",–
COc1ccc(OC)c(S(=O)(=O)Nc2cnc3ccccc3c2)c1,"inconclusive [inhibitor, partial curve]",–
CCC(=O)n1nc(-c2ccc(Cl)cc2)nc1NCc1ccccc1,active: 14.6 µM,–
COc1ccc(OC)c(NC(=O)Cc2coc3ccc(C)cc23)c1,"inconclusive [inhibitor, partial curve]",–
O=C(NCCCN1CCN(c2ccc(F)cc2)CC1)c1ccc2nc(CCc3ccccc3)oc2c1,"inconclusive [inhibitor, single point]",–
